Data published in patent US20220372150A1 (ZHEJIANG DOER BIOLOGICS, published 2022).

B1: Anti-PDL1-1A7-FC (Fc fusion)
chain: QLQLVESGGDLVQPGGSLRLSCAASGSIFSANLIDWYRQPPGKQRELVAVISSRGITSYADSVKGRFTISRDNAKNTVYLQMNSLKPEDTAVYYCHLFHTDGLGYWGQGTQVTVSS[human IgG1 Fc not spelt out]
B2: Anti-PDL1-1A7V3-Fc (Fc fusion)
chain: QVQLVESGGGLVQPGGSLRLSCAASGSIFSANLIDWYRQAPGKGLELVAVISSRGITSYADSVKGRFTISRDNSKNTLYLQMNSLRAEDTAVYYCHLFHTDGLGYWGQGTLVTVSS[human IgG1 Fc not spelt out]
notes: also called hu1A7V3 fused with human IgG1 Fc
B3: Anti-PDL1-1D1V3-Fc (Fc fusion)
chain: QVQLVESGGGLVQPGGSLRLSCAASGGTFITYAMGWFRQAPGKGLEFVAGISWSGSSTYYADSVKGRFTISRDNSKNTLYLQMNSLRAEDTAVYYCAAKISGATREHLMTSYDYWGQGTLVTVSS[human IgG1 Fc not spelt out]
notes: also called hu1D1V3 fused with human IgG1 Fc
B4: Anti-PDL1-1D1-FC (Fc fusion)
chain: QLQLVESGGGLVQAGGSLRLSCAASGGTFITYAMGWFRQAPGKDREFVAGISWSGSSTYYTDSVKGRFTISRDNAKNTVYLQMNSLKPGDTAVYYCAAKISGATREHLMTSYDYWGQGTQVTVSS[human IgG1 Fc not spelt out]
B5: Anti-PDL1-1D7V3-Fc (Fc fusion)
chain: QVQLVESGGGLVQPGGSLRLSCAASGRAFLTYAMGWFRQAPGKGLEFVAAISWSGSSTYYADSVKGRFTISRDNSKNTLYLQMNSLRAEDTAVYYCAAKVSGATRDHLMTTYDYWGQGTLVTVSS[human IgG1 Fc not spelt out]
notes: also called hu1D7V3 fused with human IgG1 Fc
B6: Anti-PDL1-5A8V3-Fc (Fc fusion)
chain: QVQLVESGGGLVQPGGSLRLSCAASGGTFITYAMGWFRQAPGKGLEFVAGISWSGSSTYYADSVKGRFTISRDNSKNTLYLQMNSLRAEDTAVYYCAAKISGATREHLRTSYDYWGQGTLVTVSS[human IgG1 Fc not spelt out]
notes: also called hu5A8V3 fused with human IgG1 Fc
B7: Anti-PDL1-1D7-FC (Fc fusion)
chain: QVQLVESGGGLVQPGGSLRLSCAASGRAFLTYAMGWFRQAPGKEREFVAAISWSGSSTYYADSVKGRFTISRDNAKNMVYLQMNSLKPEDTAVYYCAAKVSGATRDHLMTTYDYWGQGTQVTVSS[human IgG1 Fc not spelt out]
B8: Anti-PDL1-1G10-FC (Fc fusion)
chain: QVQLVESGGGLVQAGGSLRLSCAASGRPFITYAMGWFRQAPGKEREFVAAINWSGSITAYADSVKGRFTISRDNAKNAAYLQMNSLKPDDTAVYYCASKRTAVAPRALNDYDFWGQGTQVTVSS[human IgG1 Fc not spelt out]
B9: Anti-PDL1-1G10V3-Fc (Fc fusion)
chain: QVQLVESGGGLVQPGGSLRLSCAASGRPFITYAMGWFRQAPGKGLEFVAAINWSGSITAYADSVKGRFTISRDNSKNTLYLQMNSLRAEDTAVYYCASKRTAVAPRALNDYDFWGQGTLVTVSS[human IgG1 Fc not spelt out]
notes: also called hu1G10V3 fused with human IgG1 Fc
B10: Anti-PDL1-6F1V3-Fc (Fc fusion)
chain: QVQLVESGGGLVQPGGSLRLSCAASGRTFSTHSMGWFRQAPGKGLEFVAAINWNGDSTYYADSVKGRFTISRDNSKNTLYLQMNSLRAEDTAVYYCAARPGAPSTIVAMLDYWGQGTLVTVSS[human IgG1 Fc not spelt out]
notes: also called hu6F1V3 fused with human IgG1 Fc

Tests used:
[1] = biological target: T1, PDL1-HSA fusion protein composed of PDL1 extracellular domain and human serum albumin (human); assay: ELISA on coated PDL1-HSA, anti-human Fc detection
T1 construct: The entry is the whole fusion: PD-L1 extracellular domain, linker, human serum albumin; also called Human PDL1-HSA; hPDL1-HSA

[2] = biological target: T1, PDL1-HSA fusion protein composed of …; assay: competitive ELISA on coated PDL1-HSA; competitor bio-PD1-Fc (4 µg/mL, mixed in equal volume)

| Binder | EC50 [1] | IC50 [2] |
| --- | --- | --- |
| B1 | 0.07 nM | 0.0435 µg/mL |
| B2 | 0.09 nM | 0.0335 µg/mL |
| B3 | 0.1 nM | 0.0346 µg/mL |
| B4 | 0.07 nM | 0.0335 µg/mL |
| B5 | 0.08 nM | 0.0377 µg/mL |
| B6 | 0.08 nM | 0.0335 µg/mL |
| B7 | 0.07 nM | 0.0433 µg/mL |
| B8 | 0.08 nM | 0.0412 µg/mL |
| B9 | 0.1 nM | 0.0386 µg/mL |
| B10 | 0.09 nM | 0.0396 µg/mL |
